“And” between values parts separate entries of the source, which are not always exact repeats. Equal values may be shown once. The campaign covered roughly 48,000 compounds. About 1,200 (2.5%) were called active. This list was built around the results that the source calls inconclusive (neither active nor inactive); the mix of calls is not that of the screen.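 How the source made its calls: active means activation of at least 60% and not above a set upper limit (about 1 call in 100 departs from these limits); inconclusive means activation of 40% to 60%, or above that upper limit; inactive means activation under 40%.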 Where a structure was tested more than once in an assay, its records may differ in their call.
What follows are compounds tested against Probable G-protein coupled receptor 32 (Homo sapiens) (UniProt O75388) (assay: qHTS for Agonists of Human Resolvin D1 Receptor DRV1). Settings: CHO-K1 GPR32 beta-arrestin PathHunter luminescence, 90 min; at 76.9 µM; stronger effect = higher value; zero percent set by DMSO-only wells.
Text: Endogenous resolution of inflammation is known to be transduced through various GPCRs and their natural mediators of lipid nature. Resolvin D1 (RvD1) is one of the active players in resolution of acute inflammation through regulation of anti-inflammatory pathways; it is known to enhance phagocytosis of human macrophages, limits neutrophils infiltration, etc. […] The search for GPR32-activating small molecules with anti-inflammatory effects similar to its natural omega-3 derivative ligand in order to use them as research tools for further studies of inflammation and its resolution was the goal of this screening project. For primary screening assay, we used CHO-K1 GPR32 beta-arrestin cell line (DiscoveRx, #93-0321C2A) and the PathHunter(R) beta-Arrestin Assay (DiscoveRx) which measures recruitment of beta-arrestin to the GPR32 and generates chemiluminescent signal. These engineered cells stably transfected with GPR32 co-express GPR32-fused small 42-amino acid fragment of beta-Gal called ProLinktrade mark, and […] -tagged beta-Arrestin fusion protein. When GPR32 is activated by a ligand, it stimulates binding of beta -Arrestin to ProLink-tagged GPR32, and two parts of beta-Gal complement forming a functional enzyme. Upon substrate (PathHunter(R) Detection reagent) addition, beta-Gal hydrolyzes it and generates a chemiluminescent signal.
The cells were thawed and plated in thawing media containing F-12 HAM (Invitrogen, #11765-054), 10% FBS (Invitrogen, #10082), 1x Glutamine, and 1x Pen/Strep onto the 175-mm flask for 24 hours. Then, thawing media was replaced with Growth media which contains 800microg/mL Geneticin (Invitrogen, #10131) and 300microg/mL Hygromycin B (Invitrogen, #10687) in addition to described above. For the assay, the cells were harvested at ~80% confluent stage with Cell Dissociation buffer (Gibco, #13151), and seeded at 2,500 cells/ 3microL/well in assay media (PathHunter(R) Cell Plating Reagent, DiscoverX, #93-0563R1B) using MultiDrop Combi dispenser (Thermo Scientific, Logan, UT) onto white solid bottom tissue culture-treated 1536-well plates (Greiner # 789173-F) and allowed to attach overnight at 37 degrees C, 95% humidity, 5% CO2, . Next, 23nL/well of compound solutions in DMSO were added with a Pin Tool (Kalypsis, San Diego, CA) to the assay plates. As the basal control (EC0), 23 nL/well of DMSO was used on each plate. The cells were incubated in the presence of compounds or DMSO for 90 minutes at 37 degrees C, 5% CO2. Subsequently, 1.5microL/well of PathHunter(R) Detection Reagent prepared per the manufacturer's instructions was added to the assay plates with BioRAPTR FRDtrade mark dispenser (Beckman Coulter, San Francisco, CA) and incubated for 1 hour at ambient temperature prior to the measurement of the luminescent signal on ViewLux(R) uHTS Microplate Imager (Perkin Elmer, Waltham, MA).

UniProt O75388, sequence (O75388 whole entry, looked up): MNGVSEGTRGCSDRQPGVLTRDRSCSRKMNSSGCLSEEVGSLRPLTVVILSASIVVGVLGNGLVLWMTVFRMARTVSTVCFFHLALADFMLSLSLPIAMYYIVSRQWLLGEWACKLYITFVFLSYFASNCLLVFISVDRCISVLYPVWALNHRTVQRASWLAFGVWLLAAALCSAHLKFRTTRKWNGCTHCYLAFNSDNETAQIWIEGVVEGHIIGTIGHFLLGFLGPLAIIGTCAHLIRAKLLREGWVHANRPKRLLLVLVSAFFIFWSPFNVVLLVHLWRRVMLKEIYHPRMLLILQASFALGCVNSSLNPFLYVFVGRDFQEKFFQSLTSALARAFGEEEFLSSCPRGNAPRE

Row | Structure (SMILES) | activation
1 | Cc1ccc(OC(=O)c2cc(-c3ccc4c(c3)OCCO4)on2)cc1C | inactive: 1.29%
2 | CCCn1cc(S(=O)(=O)c2cc(C)ccc2C)c(=O)c2cc(F)c(N3CCOCC3)cc21 | inactive: -25.9%
3 | CCCNc1ncnc2onc(C)c12 | inactive: 4.82%
4 | Cc1ccc(NS(=O)(=O)c2ccc3c(c2)NC(=O)CCS3)cc1C | inconclusive: 182%
5 | CCOC(=O)c1c(C)[nH]c(C)c1S(=O)(=O)N1CCCC(C(=O)Nc2ccccc2OCC)C1 (configuration not stated) | inconclusive: 192%
6 | O=S(=O)(Nc1ccc2nc(-c3ccc(F)cc3)oc2c1)c1ccccc1 | inconclusive: 125%
7 | CCOc1ccc(CC(=O)NCCc2csc(-c3ccc(C)cc3)n2)cc1 | inactive: -8.46%
8 | Cc1nn(Cc2ccc(F)cc2)c(C)c1NC(=O)c1cc(CC(C)C)on1 | active: 86.4%
9 | Cc1ccc(CNC(=O)c2ccc3nc(N4CCCCC4)sc3c2)cc1 | inactive: 5.98%
10 | Cc1ccc(-n2nc(C)c(C(=O)NCCCN3CCN(c4ccc(F)cc4)CC3)c2-n2cccc2)cc1 | inconclusive: 56.6%
11 | CC1CCCN(c2ncnc3c2cnn3-c2ccc(F)cc2)C1 (configuration not stated) | inconclusive: 51.5%
12 | Cc1ccc(CNC(=O)c2ccc(CS(=O)(=O)Cc3ccc(F)cc3)o2)cc1 | inconclusive: 53%
13 | Cc1nc2c(c(C)nn2-c2ccccc2)c(C)c1CCC(=O)Nc1ccc(F)cc1 | inactive: 15.1%
14 | CC1CCN(S(=O)(=O)c2cc(C(=O)NCCc3ccccc3)n(C)c2)CC1 | inactive: -4.7%
15 | O=C(Nc1cccc(O)c1)c1cc(-c2ccccc2F)no1 | inconclusive: 51.7%
16 | Cc1ccc(C)c(CSc2cn(CCNC(=O)c3cccs3)c3ccccc23)c1 | inconclusive: 55.2%
17 | CC(C)c1ccc2oc(-c3cc(NC(=O)c4cccnc4)ccc3Cl)nc2c1 | inconclusive: 59.3%
18 | COc1ccc(Nc2oc(-c3ccc(COc4ccccc4)o3)nc2C#N)cc1 | inconclusive: 59.5%
19 | CCOc1ccc(NS(=O)(=O)c2ccc3[nH]cc(C(=O)NC4CCCC4)c(=O)c3c2)cc1 | inconclusive: 55.3%
20 | O=C(Nc1ccc2nc3n(c(=O)c2c1)CCCCC3)C(=O)Nc1ccccc1F | inconclusive: 133%
21 | Cc1ccc(C(=O)Nc2nnc(S(=O)(=O)N(C)Cc3ccc(F)cc3)s2)cc1 | inactive: 18.1%
22 | Cc1ccc(-c2noc(C3CC(=O)N(c4ccc5c(c4)OCCO5)C3)n2)cc1 (configuration not stated) | inactive: -3.3%

Row | Structure (SMILES) | activation
23 | O=C(Nc1ccc(F)c(Cl)c1)C1CCCN1S(=O)(=O)c1ccc(F)cc1 (configuration not stated) | active: 83.3%
24 | O=C(O)c1cccnc1Nc1cccc(C(F)(F)F)c1 | active: 100% and inactive: 28.4%
25 | CC(=O)Oc1ccc2c(c1)CC[C@@H]1[C@@H]2CC[C@]2(C)[C@@H](O)CC[C@@H]12 | inconclusive: 157%
26 | CC(NC(=O)c1cc2sccc2n1Cc1ccc(F)cc1)c1ccccc1 (configuration not stated) | active: 99.8%
27 | CCc1cccc(C)c1NS(=O)(=O)c1ccc(-n2cccn2)cc1 | inconclusive: 54.1%
28 | O=C(O)C1=CC(c2ccc(Br)cc2)n2ncnc2N1 (configuration not stated) | inactive: -7.32%
29 | COc1cc(CN2CCc3nc(N4CCN(c5ccccn5)CC4)ncc3C2)cc(OC)c1OC | inconclusive: 59.2%
30 | COc1ccc(CNC(=O)c2nn(-c3ccccc3C)nc2CO)cc1 | inactive: -5.7%
31 | Cc1c(C)c2c(c(C)c1O)CCC(C)(COc1ccc(CC3SC(=O)NC3=O)cc1)O2 (configuration not stated) | inconclusive: 58.6%
32 | CCOc1cc(C2c3c(-c4ccc(Br)cc4)n[nH]c3C(=O)N2c2ccc(Cl)cc2)ccc1O (configuration not stated) | active: 85.1%
33 | CCCCC(CC)COC(=O)c1ccccc1C(=O)O (configuration not stated) | inconclusive: 51%
34 | CCOC(=O)CSc1nc2ccc(NC(=O)c3ccccc3F)cc2s1 | active: 107%
35 | CCOC(=O)C(=O)CCCCCCl | inactive: 8.24%
36 | Cc1ccc(CS(=O)(=O)c2ncc(Cl)c(C(=O)Nc3nc4ccc(F)cc4s3)n2)cc1 | active: 80%
37 | Cc1cc(Nc2cccc(C(F)(F)F)c2)nc2ccc(NC(=O)c3ccc(=O)[nH]c3)cc12 | active: 112%
38 | COc1ccc(NC(=O)C2CCC(CNS(=O)(=O)c3ccc(Br)s3)CC2)cc1OC (configuration not stated) | inconclusive: 205%
39 | Cc1cccc(N2CCN(c3ncnc4onc(C)c34)CC2C)c1 (configuration not stated) | inconclusive: 54.4%
40 | Cc1ccc(OCC(=O)Nc2ccc(S(=O)(=O)N(Cc3ccccc3)c3ccccc3)cc2)cc1 | inconclusive: 172%
41 | CNC(=O)c1ccc(CSc2nc3ccncc3n2Cc2ccc(C)cc2)cc1 | inconclusive: 121%
42 | COc1ccc(NC(=O)NC(C)c2c(-n3cccc3)sc3c2CCN(C)C3)c(OC)c1 (configuration not stated) | inactive: -20.2%
43 | Cc1ccc(S(=O)(=O)N2CCC(n3c(C)nc4cccnc43)CC2)c(C)c1 | inconclusive: 55.6%
44 | Cc1ccc2c(CNCc3ccc(C)o3)c(C(=O)O)n(Cc3ccc(F)cc3)c2c1 | inconclusive: 127%

Row | Structure (SMILES) | activation
45 | Cc1cccc(N2CCN(c3ncnc4c3nc3n4CCCCC3)CC2C)c1 (configuration not stated) | inactive: -2.64%
46 | Cc1cccc(N2CCN(C(=O)Cn3ncc4c5ccccc5n(C)c4c3=O)CC2C)c1 (configuration not stated) | inconclusive: 52.1%
47 | O=S(=O)(NCc1ccc(Cl)cc1)c1ccc2[nH]c3c(c2c1)CCCC3 | active: 76.9%
48 | O=C(CSc1nc(-c2ccccc2)nc2c1Cc1ccccc1O2)N1CCCCC1 | inactive: 1.73%
49 | CCOC(=O)c1c(NC(=O)/C=C/c2ccc(C)cc2)sc2c1CCCC2 | inactive: 12.8%
50 | COc1ccccc1CNC(=O)c1ccc(-c2nc(CS(=O)(=O)c3ccc(C)cc3)c(C)o2)cc1 | inactive: -3.63%
51 | CCCN1C(=O)c2[nH]nc(-c3ccc(F)cc3)c2C1c1ccccn1 (configuration not stated) | inactive: -25.1%
52 | COc1cccc(C2CC(=O)N3CN(C4CCCCC4)CSC3=C2C#N)c1 (configuration not stated) | inconclusive: 51.9%
53 | COc1ccc(-c2ccc3c(N)c(C(=O)Nc4cccc(C)c4)sc3n2)cc1 | inconclusive: 54.1%
54 | Cc1cccc(C2C=C(c3ccc(F)cc3)Nc3nc4ccccc4n32)c1 (configuration not stated) | inactive: -17.2%
55 | Cc1oc(-c2ccccc2F)nc1CS(=O)(=O)CC(=O)N1CCN(c2ccc(Cl)cc2)CC1 | inconclusive: 53.7%
56 | CCOC(=O)C1CCCN(C(=O)Cn2c(=O)cc(C)c3c(C)nn(C)c32)C1 (configuration not stated) | active: 81%
57 | CC(=O)c1ccc(NC(=O)Nc2ccc3snnc3c2)cc1 | inconclusive: 129%
58 | CCc1ccc(NC(=O)Nc2cn(C)c(=O)c3ccccc23)cc1 | inactive: -35.6%
59 | Cc1ccc2nc(N(CCCN(C)C)C(=O)c3ccco3)sc2c1 | inconclusive: 51.7%
60 | CCCn1c(COc2cccc(C)c2)nc2ccccc21 | inactive: -1.8%
61 | CCN(CC)CCN(C(=O)c1ccco1)c1nc2c(C)c(C)ccc2s1 | inconclusive: 169%
62 | Cc1ccc(NC(=O)/C(C#N)=C\c2ccc(-c3ccc(Cl)cc3)o2)c(C)c1 | inactive: -5.53%
63 | Clc1ccc(Nc2nc(-c3ccccc3)c3ccccc3n2)c(Cl)c1 | inactive: -4.25%
64 | COc1ccccc1NC(=O)C1=C(C)Nc2nc(SCc3ccccc3F)nn2C1c1ccncc1 (configuration not stated) | inactive: 4.45%
65 | COc1ccc(-c2csc(=Nc3ccccc3)n2CCO)cc1F | active: 96.3%
66 | COc1cccc(OC)c1C(=O)NCCc1csc(-c2ccc(Cl)cc2)n1 | inconclusive: 127%

Row | Structure (SMILES) | activation
67 | Cc1ccc(C(=O)Nc2cccc3cccnc23)cc1Cl | inactive: -6.39%
68 | Cc1cc2ccccc2n1CCNC(=O)c1ccc(Br)cc1 | inconclusive: 54.2%
69 | O=C(c1cnc2c(c1)COc1ccc(Cl)cc1-2)c1ccccc1O | inconclusive: 133%
70 | Cc1cccc(CC(=O)Nc2ccc3nc(N4CCC(C)CC4)cc(C)c3c2)c1 | inconclusive: 56.2%
71 | O=C(c1ccc(F)cc1)N1CCC(c2nc3ccccc3s2)CC1 | active: 63.6%
72 | C[n+]1cc2c3c(ccc2c2ccc4cc5c(cc4c21)OCO5)OCO3 | inconclusive: 162%
73 | CC1(C)CCC(C)(C)c2cc(NC(=O)c3ccc(C(=O)O)cc3)ccc21 | inconclusive: 188%
74 | CCc1ccccc1-n1nnc(-c2nsc(NC(=O)c3ccc(C)c(C)c3)n2)c1C | active: 71.8%
75 | COc1cccc(C(=O)Nc2nnc(S(=O)(=O)N3CCCC3)s2)c1 | inconclusive: 53.7%
76 | Cc1ccc(NC(=O)C2CCCN(S(=O)(=O)c3ccc4c(c3)CCCC(=O)N4)C2)cc1Cl (configuration not stated) | inconclusive: 54.7%
77 | CCCCc1ccc(NC(=O)CSc2nnc3[nH]c(=O)cc(C)n23)cc1 | inconclusive: 53.1%
78 | COc1cc(OC)c(NC(=O)c2c3c(nc4ccccc24)C(=O)N(C2CCCCC2)C3)cc1Cl | inconclusive: 55%
79 | COc1ccccc1CNC(=O)c1cc2ccc3ccc(C)[nH]c3c2n1 | inconclusive: 57.6%
80 | Cc1ccccc1CSCCNC(=O)CN(c1ccccc1)S(=O)(=O)N(C)C | inconclusive: 54.2%
81 | CCOc1ccc(C(=O)N2CCN(Cc3cc(=O)n4nc(-c5cccc(OC)c5)sc4n3)CC2)cc1 | active: 74.3%
82 | CCc1ccc2oc(C(=O)NCCc3ccc(OC)c(OC)c3)cc(=O)c2c1 | inconclusive: 220%
83 | O=C(Nc1nnc(S(=O)(=O)N2CCCC2)s1)c1ccccc1Cl | inconclusive: 55.9%
84 | COc1ccccc1N1CCN(CCC(=O)Nc2cccc(F)c2)CC1 | inconclusive: 55%
85 | COc1cccc(/C=C(\C#N)c2nc3ccc(C)cc3[nH]2)c1 | inconclusive: 57.1%
86 | Fc1ccc(NCc2cccn2-c2nnc(N3CCOCC3)s2)cc1 | active: 66.8%
87 | Cc1ccc(S(=O)(=O)NCCc2csc(-c3ccc(Cl)cc3)n2)cc1 | inconclusive: 150%

Source: PubChem BioAssay AID1346428 (National Center for Advancing Translational Sciences (NCATS), 2018)
